# Whole data set: some 33,000 sequences, median “E-score (-0.5 to 0.5)” near -0.012, cut for the highest 2% near 0.29. The list shows a part of the results.
# Biological target: T1, Ybr033w (UniProt P38073)
# T1 sequence: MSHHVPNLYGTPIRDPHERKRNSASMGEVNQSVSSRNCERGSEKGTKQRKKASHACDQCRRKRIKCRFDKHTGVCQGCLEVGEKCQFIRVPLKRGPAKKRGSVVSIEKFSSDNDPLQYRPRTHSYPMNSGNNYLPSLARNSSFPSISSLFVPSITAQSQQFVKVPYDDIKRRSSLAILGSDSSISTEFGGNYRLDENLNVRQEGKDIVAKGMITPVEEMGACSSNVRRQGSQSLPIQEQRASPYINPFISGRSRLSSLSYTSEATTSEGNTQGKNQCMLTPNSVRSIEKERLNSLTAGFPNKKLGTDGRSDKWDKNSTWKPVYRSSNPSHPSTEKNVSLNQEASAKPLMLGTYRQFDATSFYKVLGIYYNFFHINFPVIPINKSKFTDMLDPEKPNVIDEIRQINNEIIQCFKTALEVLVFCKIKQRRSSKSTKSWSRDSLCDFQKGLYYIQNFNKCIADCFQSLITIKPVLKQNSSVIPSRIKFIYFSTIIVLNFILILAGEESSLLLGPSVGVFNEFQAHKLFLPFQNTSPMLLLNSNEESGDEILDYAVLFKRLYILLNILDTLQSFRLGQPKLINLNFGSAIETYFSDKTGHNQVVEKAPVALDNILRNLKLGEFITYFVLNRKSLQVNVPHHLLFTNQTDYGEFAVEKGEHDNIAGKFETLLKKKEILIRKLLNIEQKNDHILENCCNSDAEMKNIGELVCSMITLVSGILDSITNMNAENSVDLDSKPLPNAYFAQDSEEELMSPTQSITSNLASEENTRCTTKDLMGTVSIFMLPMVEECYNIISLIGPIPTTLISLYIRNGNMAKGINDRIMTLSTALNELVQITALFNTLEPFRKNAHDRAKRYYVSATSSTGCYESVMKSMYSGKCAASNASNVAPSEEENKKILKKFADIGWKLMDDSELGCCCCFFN
# Experiment: PBM E-score (8-mer binding enrichment) (E-score (-0.5 to 0.5)); higher = stronger / more preferred TF binding; most listed sequences are background and not binding sites
# Settings: protein concentration: 200 nM; construct: GST-full length
# Method: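 Universal 'all 10-mer' protein binding microarrays (Agilent AMADID 015681) probed with GST-tagged S. cerevisiae TFs (full-length or DBD) made by in vitro transcription/translation (PURExpress), about 100-200 nM. Bound TF was detected with fluorescent anti-GST. Each ungapped 8-mer (which stands for itself and its reverse complement) is scored by the PBM enrichment score (E-score), a modified Wilcoxon-Mann-Whitney statistic from -0.5 to +0.5, computed with the Universal PBM Analysis Suite. Scale: above 0.35 generally sequence-specific binding.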
row,Sequence,PBM E-score
1,AGAAGATC,-0.0526
2,AAACCACC,-0.0782
3,CCTGCGGC,-0.304
4,ACTACCCA,0.0187
5,AGCAACAT,0.0238
6,CCGAGCTC,-0.118
7,CCAGTGCA,-0.108
8,ATAATCAC,0.212
9,TTACAAAA,0.268
10,GGCCCAGA,-0.33
11,AAGCCGAT,0.0459
12,CCGTGCTC,-0.22
13,CCTCGTCC,-0.169
14,ATATGTTC,0.261
15,GGTATGAC,-0.127
16,CCTCTGAA,-0.218
17,ACTTCGAC,0.0396
18,CGCCAAAA,0.0408
19,ATCCAAGA,0.175
20,CTCTGATC,-0.226
21,CATGCTGG,-0.08
22,ACTCCGCG,-0.177
23,GTGGAATA,0.262
24,ACGACAGA,-0.16
25,GACGAGCA,-0.00776

row,Sequence,PBM E-score
1,TGAGATAA,0.151
2,GTGGCGTA,-0.0744
3,TCGACCAA,-0.117
4,TATTCCAA,0.269
5,CTGTTACC,-0.0685
6,GCGTAGAC,-0.163
7,ATGTTGTG,0.206
8,ACCGGCGC,-0.15
9,ACCGCCAA,-0.0227
10,AGGAACTG,-0.123
11,CATTCTTA,0.0157
12,CCTTCTTA,-0.143
13,GGCAGCCA,-0.0547
14,CACAACCG,-0.0477
15,ATAAGATC,0.0107
16,CAGATCCC,-0.187
17,ATGTGGAC,0.0325
18,CTACTTGA,-0.0776
19,ATGGACGA,0.032
20,GCTCTAGA,-0.2
21,ACCAAAAC,0.0839
22,TAACACTA,0.28
23,ATGTCTCC,-0.0377
24,ACCGGGAG,-0.268
25,AGGACCGG,-0.276

row,Sequence,PBM E-score
1,GGACCGGA,-0.0009
2,CTGGACGC,-0.321
3,CGTGAAGA,-0.00671
4,GAATATCA,0.259
5,ATATACAT,0.265
6,CCTCCAGC,-0.159
7,GAAACTAC,0.153
8,CTTGTTCC,0.27
9,CATTGTAG,0.09
10,ACGACCTC,0.219
11,AGGTATTG,0.0485
12,ATTGTTTA,0.296
13,GAACACTA,0.0403
14,ACGCACGA,0.03
15,CAGGCTAG,-0.289
16,ATAGTTCG,0.0202
17,CTGTGAAA,0.216
18,AAATTCCT,0.124
19,CGTGTCAG,-0.0641
20,AACACAAA,0.0645
21,TCAAAGCA,-0.0304
22,CATTGTCG,-0.138
23,ACGTTACT,0.0376
24,ACAGTCAA,0.168
25,AGAGTAAA,0.0304

row,Sequence,PBM E-score
1,GCGAGCTA,-0.00627
2,GGACGCAA,-0.101
3,ATAGTAAC,0.116
4,ATGCGTCC,-0.266
5,CTGTGTGC,-0.0829
6,CACAGGAG,-0.075
7,CTCGAACC,-0.114
8,CGTGCCCC,-0.302
9,CGCTACGA,-0.0121
10,TAACAGTA,0.113
11,ACCGACAG,-0.135
12,ACCGAGTC,-0.175
13,ACTATATA,0.309
14,CCCGACCC,-0.269
15,CTGATAAA,0.25
16,GATAGCCA,-0.0389
17,AGGCCCAG,-0.24
18,CATGCTAC,-0.0247
19,GGCGGCCA,-0.204
20,ATTTACGC,0.149
21,ATATTCGG,0.0327
22,TATACTAA,0.0233
23,AGTTGAGA,-0.0349
24,GCTTGCTA,-0.0945
25,CGCACACA,0.0069

row,Sequence,PBM E-score
1,AAGTTTCA,0.24
2,CGTCAGTC,0.0529
3,GGCGCCAA,-0.0673
4,CCCGCGGG,-0.216
5,ATCGTCTG,-0.112
6,GGACCGTA,-0.208
7,ACGTGCCA,-0.191
8,GCACAGAA,-0.00797
9,CATACCAA,0.189
10,CTGCGTTC,-0.00942
11,CCGGAGTA,0.133
12,ACTGGGAC,-0.0668
13,AGACGATC,-0.242
14,AACAACGT,0.0838
15,GCACAGCA,-0.0918
16,AGAATCAT,0.152
17,ACAAGTGC,-0.093
18,CGGCCTTA,-0.00193
19,CTCGAGCA,0.0129
20,CTTCATCC,-0.0751
21,AACACCCT,-0.026
22,ACAGATGA,-0.0859
23,AAACCAGA,0.0968
24,ACGGGGAA,0.0497
25,AGCGATGC,-0.168

row,Sequence,PBM E-score
1,ATTGGTAA,0.173
2,GCGTGGCC,-0.193
3,GCAAACTA,0.138
4,CAGAAACA,0.0493
5,AATCCGAT,0.237
6,CCAGTGTC,-0.00819
7,GGACTGAA,-0.141
8,ACGGAATG,-0.153
9,AGCGGTTC,-0.0976
10,ACACCTAA,0.101
11,AAGCCCTC,-0.114
12,CTAAATGA,0.0729
13,CCGCGGGC,-0.118
14,TCATAAAA,0.159
15,ATCAAGCC,0.0771
16,AAAGTGGT,0.121
17,ACACATAC,0.0431
18,AAACCGAC,0.054
19,GCTCTTCC,0.0199
20,CAAAACGG,-0.00109
21,CCTAACCG,-0.183
22,ATCTCTGA,0.0872
23,ACACTGAG,0.0232
24,CGTGCCGC,-0.281
25,ATTCATCG,-0.0554

row,Sequence,PBM E-score
1,ACTTGAAG,0.0311
2,GCTATTAC,-0.0504
3,GGTCAGTA,-0.01
4,GGATGCCA,-0.167
5,GGGAATAC,-0.0369
6,TAGCACTA,-0.0865
7,CCACTTGA,-0.0116
8,ACAGTCTA,-0.0363
9,CGGGGCTC,-0.168
10,AGGTAAAT,0.133
11,GGTGATAA,-0.033
12,CGTTAATC,0.248
13,CGAGGGGA,-0.179
14,ACCAACCT,0.00045
15,ATCCCCCG,-0.129
16,CTAAACAA,0.112
17,GGAGCAAC,-0.202
18,ACAGCGCT,-0.0686
19,CATCACCC,-0.266
20,AAGTTGAC,0.128
21,AGCGAAGC,-0.227
22,GTGAAAAC,0.105
23,CAAAAGCA,0.0319
24,GAACCGAA,0.138
25,AAATCCGG,0.265

row,Sequence,PBM E-score
1,GGGAAACC,-0.0396
2,TTAATCAA,0.258
3,GTACTATA,0.208
4,CCGAGACC,-0.295
5,CAGGAAAC,-0.0534
6,AACTTACG,0.103
7,GGACGGAC,-0.278
8,GATGGCAA,0.175
9,AGTCCTTG,-0.0834
10,AGTGCCCA,-0.158
11,CGCCGCTA,-0.113
12,TAAAGCTA,0.0949
13,GCAAGAAA,0.0331
14,ATCGTATC,0.111
15,AACTGCCG,-0.0138
16,CGCAAGAA,0.174
17,CCGAGACG,-0.154
18,AATACCGG,0.11
19,GCACAGTA,0.0829
20,CGACTTTC,-0.0733
21,CATGGGAC,-0.122
22,GCAGGGCC,-0.355
23,AACGGTCA,0.0744
24,GCCAGATA,0.0301
25,CTAATATC,0.196

row,Sequence,PBM E-score
1,CCGTCAGC,-0.195
2,ACCATCAA,0.137
3,CTCACTAA,0.0203
4,CCTTCGGA,0.117
5,CGCTCAGA,-0.029
6,AACTGCCA,-0.102
7,AGCGCATA,-0.0211
8,CTTAGGTC,-0.226
9,ATCCCACG,-0.139
10,AGCATACG,-0.0246
11,CCTATAGC,-0.0831
12,ACGTCATA,0.214
13,CCTCGCAG,-0.237
14,ACGCCAAT,0.157
15,ATTGTGAG,0.122
16,AATAGACG,-0.00095
17,CAGTCCGA,-0.12
18,CCTGCCCA,-0.314
19,CCGTGGAG,-0.327
